Test results reported in publication PMC3285607.

Target: FITC-RGS14 GoLoco motif peptide (UniProt O08773)
Assay: fluorescence polarisation

Chain of UniProt O08773 (O08773 497-519): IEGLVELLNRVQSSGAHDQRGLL

Gαi1(G42R), full-length, hexahistidine-tagged (a stretch of the chain, no sequence given) (natural protein)
Kd: 45 nM and 168 nM

Several values for one entry are separate records, joined by “and”; a condition that tells them apart may be missing. Equal entries are not always repeated.
